Test system: opioid dependent subjects
Conditions: naloxone 0.1 and 0.2 mg added to 0.75 mg buprenorphine, intravenously

C=CCN1CC[C@]23c4c5ccc(O)c4O[C@H]2C(=O)CC[C@@]3(O)[C@H]1C5 [naloxone]
abuse deterrent effect: provide an abuse deterrent effect

From patent publication US8703177B2, “Abuse-resistant mucoadhesive devices for delivery of buprenorphine” (BioDelivery Sciences International, Inc., priority 2011, dated 2014)
